The full ranking holds about 33,000 sequences; the median of “E-score (-0.5 to 0.5)” is about -0.041, and the highest 2% start at about 0.37. This is one part of the list.

The results in this text go back to the supplement of paper PMC3334620.

In the test the target is T1, Ecm22 (UniProt Q05958).
T1 sequence: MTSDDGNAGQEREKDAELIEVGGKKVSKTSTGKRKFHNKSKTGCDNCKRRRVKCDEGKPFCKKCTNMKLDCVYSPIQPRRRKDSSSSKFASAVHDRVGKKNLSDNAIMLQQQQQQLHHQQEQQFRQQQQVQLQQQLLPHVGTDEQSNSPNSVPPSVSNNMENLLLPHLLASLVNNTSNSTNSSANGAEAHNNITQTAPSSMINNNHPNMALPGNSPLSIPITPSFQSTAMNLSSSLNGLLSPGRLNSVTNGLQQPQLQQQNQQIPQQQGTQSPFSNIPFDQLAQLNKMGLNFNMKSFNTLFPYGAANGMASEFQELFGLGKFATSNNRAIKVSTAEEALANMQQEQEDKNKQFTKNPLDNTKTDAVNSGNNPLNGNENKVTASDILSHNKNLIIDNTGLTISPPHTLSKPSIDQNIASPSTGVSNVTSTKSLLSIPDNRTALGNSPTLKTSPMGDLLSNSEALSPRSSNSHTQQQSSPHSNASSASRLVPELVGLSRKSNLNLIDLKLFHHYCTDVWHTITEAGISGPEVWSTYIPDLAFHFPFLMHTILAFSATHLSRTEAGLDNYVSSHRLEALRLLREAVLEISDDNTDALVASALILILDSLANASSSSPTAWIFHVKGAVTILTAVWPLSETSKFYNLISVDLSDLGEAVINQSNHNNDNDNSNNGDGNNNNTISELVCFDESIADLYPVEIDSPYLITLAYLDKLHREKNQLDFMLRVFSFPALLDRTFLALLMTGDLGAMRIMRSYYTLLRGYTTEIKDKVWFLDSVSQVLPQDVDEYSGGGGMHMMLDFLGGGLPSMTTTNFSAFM
The test is described as follows: PBM E-score (8-mer binding enrichment) (E-score (-0.5 to 0.5)); higher = stronger / more preferred TF binding; most listed sequences are background and not binding sites. The settings on record: protein concentration: 200 nM; construct: GST-full length. On the procedure:
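Universal 'all 10-mer' protein binding microarrays (Agilent AMADID 015681) probed with GST-tagged S. cerevisiae TFs (full-length or DBD) made by in vitro transcription/translation (PURExpress), about 100-200 nM. Bound TF was detected with fluorescent anti-GST. Each ungapped 8-mer (which stands for itself and its reverse complement) is scored by the PBM enrichment score (E-score), a modified Wilcoxon-Mann-Whitney statistic from -0.5 to +0.5, computed with the Universal PBM Analysis Suite. Scale: above 0.35 generally sequence-specific binding.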
Take CCCGTACA: the “PBM E-score” value was 0.368. The result for ACGCTTCT reads -0.0189; that for CGACTGAC, -0.0824; that for GATAGCTA, -0.159. In the case of GTACCAGA it was 0.116. In the case of CAAATATC it was 0.0295. CCTATGAC: the “PBM E-score” value was -0.0706. The result for CGTGGTCC reads -0.14. Regarding AAAATGCT, the “PBM E-score” value was -0.0509. The result for GGAGTTAA reads -0.151; that for ATCAGTGA, -0.255.

For CGATGTCC, the “PBM E-score” value is 0.0399. The result for CTGGCGAA reads -0.106; that for CCACAGGG, -0.107; that for AAGTCGAG, -0.113. In the case of AGAAGGTA it was -0.0231; in that of AGTTGAGC, -0.0193. GAAAACTC: the “PBM E-score” value was -0.163. Consider ATTCGTTC, for which the “PBM E-score” value amounted to 0.432. Regarding AGAAGGAC, the “PBM E-score” value is -0.242. The result for CTGAGATC reads -0.134. Consider ATCTGAGC, for which the “PBM E-score” value was determined as 0.0659. On to GTTTAGAA, for which the “PBM E-score” value was determined as 0.222.

GTTCATTA: the “PBM E-score” value worked out at 0.135.

In the case of GGCCCGCC, the “PBM E-score” value was -0.217. Turning to CAGTCTTA, the “PBM E-score” value is -0.0489.

For CATTGCTC, the “PBM E-score” value was 0.0235. For the sequence GAAAATAA, the “PBM E-score” value stood at 0.0123. As to AACTAAGC, the “PBM E-score” value was 0.101. In the case of GAGACCCA it was -0.17; in that of ACCAGGTG, -0.199. In the case of AAGTTGGG, the “PBM E-score” value was -0.166. With CAGGGAGA, the “PBM E-score” value is -0.279. The result for ACGACGGA reads 0.388; that for TACCTCTA, -0.0643; that for CTCCGAGA, 0.103.

With ATTTCGCG, the “PBM E-score” value was 0.179. In the case of GGAAACTA it was -0.034; in that of AACTCTGC, -0.273. In the case of CGAGGCAG it was 0.232.

In the case of ATTTCAAC, the “PBM E-score” value is -0.0958.

Take TCATGCGA: the “PBM E-score” value was determined as 0.205. With GAAATCAA, the “PBM E-score” value is -0.186. In the case of CAGTTCGC, the “PBM E-score” value worked out at 0.0691. Regarding AATAAAGC, the “PBM E-score” value was determined as 0.0906. The result for CATATTGG reads 0.113. In the case of CTTGGCGC it was -0.147; in that of CGATAGAA, 0.149; in that of ACCGGAGG, -0.174. Consider AGACCCCA, for which the “PBM E-score” value was -0.246. For ACAGAGGA, the “PBM E-score” value was -0.0592. For the sequence TGAGCCCA, the “PBM E-score” value is -0.0901.

As for ATGAGACG, the “PBM E-score” value was -0.112. As for ACGGATCG, the “PBM E-score” value is 0.247.

On to AGGATCGG, for which the “PBM E-score” value is -0.0515.

For AGACCCGC, the “PBM E-score” value was -0.00174. Regarding TAAATCAA, the “PBM E-score” value was found to be 0.115. In the case of GATCAGCA, the “PBM E-score” value is -0.0245.

Regarding CGCGTCTA, the “PBM E-score” value is -0.0107. With AGCAACAG, the “PBM E-score” value is -0.058. For the sequence GCTCCGGA, the “PBM E-score” value came to 0.169. The result for ACGGTCTA reads 0.167; that for GCACGGAC, -0.0452. For the sequence ACGTATTG, the “PBM E-score” value amounted to 0.22. In the case of TGCTTACA it was -0.0902; in that of CATTACTA, 9e-05; in that of ATACGCCC, 0.116. Consider GAGGGGGC, for which the “PBM E-score” value was -0.198. With CAAGCAGC, the “PBM E-score” value was -0.0986. ATCCACGA: the “PBM E-score” value came to 0.0369. In the case of AGGTTCTA, the “PBM E-score” value was -0.0822. CTGACACA: the “PBM E-score” value was -0.298.

For the sequence CACTGTAA, the “PBM E-score” value is -0.0272. Consider ACAAGAGT, for which the “PBM E-score” value was -0.107. In the case of ATAAGAAG, the “PBM E-score” value came to 0.0417. For ATGTTCAG, the “PBM E-score” value was -0.297. The result for AATTGTCT reads -0.0316; that for TACCGATA, 0.245; that for CAATTTTA, 0.121. In the case of AGGGTTGG it was -0.0747; in that of GCGGACAC, -0.0171; in that of GCCTATAA, -0.00832.

In the case of AACCCAGC, the “PBM E-score” value is -0.207. The result for GCCTCAGA reads -0.0532; that for CGAACTCC, 0.184. In the case of CAACCCCG it was -0.214.
